Read counts are not given, so values of variants with three or more changes are uncertain.
B1: OR4K15 (parent)
chain: GUUAACGGUCAUAGGCCAUGGAAACUAGGAGCACCAUUUCGCUGCCAGUGAAGAAAUGAACAAAGAAAAUCUGGGCCAGGCAGGCAUCAAAAGAAAUAGUCUUGCGCUCAACCAGAAAGUCUGUAAUCAUUUUAAGGGUA

Variants of: B1
Assay: self-cleavage, relative activity (ratio to wild type); higher = more cleavage; in vitro, sequencing; the parent is a self-cleaving ribozyme

Variant | self-cleavage
A52G U124C A125U | 0.86
A52G A67G A68G A92G A110G A118G U132C | 0.05
A51G A66G C113A U122C | 0.05
A51G G84A U103C | 1.31
A54G A63U A68G A117U A126G U139C | 0.24
A54G U72A C112U | 0.03
A52G A126G A140U | 1.24
A51G A66G A96G | 0.21
A54G A98G A125G | 0.1
A52G A78G A92U | 0.3
A51G A67G A82U | 0.26
A52G G74A U87C | 0.14
A54G C77U C107G U131C | 0.01
A51G A91U U127A | 2.96
A54G U70C A90G | 0.1
A51G A67G C105G | 0.05
A52G A69U A78U | 0.35
A52G A89U A91G U131C | 1.87
A54G A59U A78G U87C A117G | 0.55
A52U A66G A111U U120C U130C | 0.02
A51U A67G U122C | 1.59
A51U A54G A59G | 1.89
A51U U57C A62G | 0.4
A52G A67G A110G A118G | 0.07

Variant | self-cleavage
A52U U72A G84A | 0.27
A54G A86G U103C | 0.63
A51U G75A A86U | 0.04
A52G A55G A67U A94G | 0.49
A52U A78G A89G G106A | 0.02
A52G A63G A67G | 1.77
A54G A111U A114G A117G | 0.03
A54G A82G C85U A111G A129G | 0
A51G A62G A94G U103C | 0.63
A52U A62G A98G | 0.44
A54G A68G A110G A129G | 0.17
A54G C77G A114G | 0.1
A51U A78U A90G A134G | 0.08
A54G A66G A126G U130C | 0.33
A54G A78C U102C A135G | 0.48
A54G A118U U130C | 0.67
A54G A68G A116G | 0.5
A51G A68G U127C | 1.45
A52U A69G A82C A89G U127A | 0.2
A54C A89U A116G U132A | 0.21
A52U A78G U108C | 0.02
A54G A64G A96G | 2.54
G53U U57G A82G | 0.47
A52G A89G A92U | 0.65

Variant | self-cleavage
A54G A56G U72C | 0.23
A54G A60G A66G U70C A90G U102A | 0.25
A52G A60G A69G C71A A116G | 0.25
A51G U100C A111G | 0.01
A54G A56G A118G | 1.23
A52G A118G C121A U130C | 2.55
A51G A69G A125G U131C | 0.3
A52G A68U A116G U122C | 0.98
A52G U70C G83A | 1.18
A52G U72A U102A | 0.11
A52G U100C A114U A134U | 0.05
A54G A78U U100A | 0.04
A52G A62G A68G A117U A129G U133C | 1.22
A51G A90G U102A U124C A125G | 0.15
A54G A66G A67G A78G | 0.1
A51U A126G U139A | 0.71
A52U A91G U103C | 0.47
A52G U100C U139A | 2.21
A52G A94G A96G | 0.54
A52G A67G A82U A94G U100C | 0.21
A54G A69U A82G A94G U103C | 1.99
A52G A55G U102A A118U | 0.16
A52G A55G U100A | 0.09
A51G A117G A126G | 1.5

Variant | self-cleavage
A54G A78U A92G U120C | 0.06
A54G A56G A59U | 0.9
A51G A68G U97C | 1.06
A51G A68G A78U A82U A96C | 0.03
A51G U57C U70C | 0.57
A52G A67G A82G A114G | 0.17
A52G A63G C81U | 0.59
A52G U102C U130C A140G | 2.45
A52G U87C A126G | 0.65
A52G A60C A67G A92U | 1.89
A52G A67G U72C | 0.44
A52C A89G U103C A111G U127G | 0.01
A52G A63G A118G | 2.11
A52U A59G U70C A90G U124A | 0.19
A51G A66G A78U | 0.66
A52U U57C A68G U108C A117G U122C | 0.01
A51G U132C A135G | 0.74
A54G A86G A91G | 0.15
A54G A95U U108C U131C | 0
A52G A90G U108C A116G A129G U131C | 0
A51G A67G U102A | 1.23
A54G A59G A114U A126C U127C | 0
A54G A56G A59G A63G | 1.71
A52G A114G U139C | 0.49

Variant | self-cleavage
A51U A94G U122C | 1.52
A51G U87C A116U | 0.16
A54G A86U A94G U127C | 1
A52G A62G A64G G74A U97C | 0.16
A51U U57A G74U A98G | 0.06
A52G U87A A135G | 1.24
A54G A56G U103C U139C | 0.14
A52G A60G U97C | 1.64
A52G A62G A117U | 0.69
A51U A111G A116G U130A | 0
A51G A62G U108A | 0.04
A54G U100C A126G | 1.7
A51G A89G A117G A126G | 1.08
A52G A82G A90G A111G A135G | 0.01
A54G A62G U87C U122C | 1.36
A52U A126U A129G | 1.2
A54G A68G A111G | 0.02
A54G G123C U131C | 0.79
A52G A54G A126G | 1.99
A54G A60U G93C U120C | 1.7
A54G A67U A126G A140U | 1.28
A51G A63G A134G | 2.1
A54G A55G A95G U100C | 2.61
A52U A62U A67G U108C | 0.05

Variant | self-cleavage
A54G A67G U122C | 0.95
A52G A90G A110G | 0.08
A54G U108A U130C | 0.01
A52G A92G U102A | 1.39
A52U U57C C71U U87C | 0.25
A51G A95G U131C | 1.65
A54G U108C A116G | 0.02
A54G A82G U103C U133C | 2.2
A54G U122C U139C | 1.3
A54G A67G U70C A78U A95G U127C | 0.09
A51G U72A U103C A125G | 0.02
A54G A94G U122A | 1.68
A54G A59U U108C A111G A117G A118G | 0
G53U A78G A82G U139C | 0.1
A52G A69G U120C A135U | 0.89
A52G A67G A94G | 1.12
A54G A62G G106C | 0.02
A51U A86G U103A U122C G137A | 0.64
A52G A98G U130C U133C | 0.18
A54G A89U G115A U122C A140G | 0.04
G53A A95G C101U | 1.28
A52G A91G U139C | 1.18
A52G A60G A78G U87C A91G A98G A116U | 0.01
A51G A68U U139C | 1.19

Variant | self-cleavage
A54G A55G A82G | 0.71
A54G U102C A116U A140G | 0.62
A51U U72C A95G A114C U130C | 0.01
A52U A111G U120A | 0.01
A54G A55G A68G | 1.81
A51U U57A A110G A126G | 0.05
A51U U108A A114G | 0.01
A54G A69G U102C U139C | 1.89
A51G A66G A140G | 1.41
A54G U72C A96U A111G | 0.03
A52G A56G A92G A96U | 1.7
A52G A62G A90G | 0.83
G53C A66G U139C | 2.55
A51U A78G A96G G136A | 0.3
A54G A62G A66G | 1.2
A54G A62C U120C | 1.13
A54G A60G G75A A86U U102C | 0.19
A51G A82G A94U U102C U108C A110G | 0
A52G A92G A116G | 1.57
A51U A68G A86U A91G | 1.36
A52G A95G U139C | 2.47
G53A A56G A135G | 1.46
A54G A89G A117G | 2.31

Reference: the RNAGym collection of RNA variant scans (doi:10.7554/elife.90254)
